ChEMBL document CHEMBL4888484, “Replenishing the malaria drug discovery pipeline: Screening and hit evaluation of the MMV Hit Generation Library 1 (HGL1) against asexual blood stage Plasmodium falciparum ,using a nano luciferase reporter read-out” (2022)
In all, about 150,000 compounds went through this assay and about 540 (0.36%) showed an effect of 50% or more. This is one part of the list.

What follows are molecules tested on Plasmodium falciparum (assay: Primary screen in NF54 nanoGlo assay, in single point, at 2uM, 72h; a lower Z score goes with more inhibition). Details: timepoint 72 hour.
Format: functional, Erythrocyte

Row | SMILES | % Inhibition [%] | Z score
1 | COc1ccc(N[C@@H](C)C(=O)Nc2ccc3c(c2)OCCO3)c(OC)c1 | 0 | 0.02
2 | Cc1ncn(-c2cc(NCCNC(=O)C(C)(C)C)ncn2)c1C | -3 | 0.48
3 | Cc1c(CC(=O)NC(C)(C)CO)c2c(n1Cc1ccccc1)CCCC2=O | -15 | 1.98
4 | Cc1ccc(CNC[C@H](O)c2cccnc2)c(Br)c1 | 7 | -0.68
5 | O=C(NS(=O)(=O)[C@H]1CCCOC1)c1c[nH]c(C(F)(F)F)c1 | -1 | 0.25
6 | Cc1cc(C)c(CN2CCC3(CC2)COC(=O)O3)c(-n2cccn2)c1 | -4 | 0.76
7 | N#Cc1ccccc1S(=O)(=O)NC(C1CC1)C1CC1 | -9 | 0.89
8 | CCOC(=O)Cn1nc[n+]2nc(C)c(CC)c([O-])c12 | -4 | 0.46
9 | COc1cccn(CC(=O)N2CCC(Cn3cc(C)cn3)CC2)c1=O | -7 | 1.37
10 | COCCNC(=NC1CC1)NCc1ccc(N2CCCC2)cc1 | 4 | -0.7
11 | CCc1nc(C)c(C(=O)N(Cc2cccnc2)Cc2ccsc2)o1 | 2 | -0.31
12 | NCCOc1ccc(F)cc1C(=O)NCc1ccc(-c2ncon2)cc1 | -26 | 4.24
13 | CC(C)[C@H]1NC(=O)[C@@H]2C[C@H](NC(=O)c3ccc4ccccc4c3)CN2C1=O | -11 | 1.28
14 | Cc1nc(NC(=O)c2cc3c(F)cccc3s2)sc1-c1ccccn1 | -8 | 1.05
15 | Cc1cnccc1CN(C)C(=O)c1ccc(N)nc1 | -4 | 0.49
16 | Cc1ccc(-c2nccn3cc(C(=O)NCc4cnccn4)nc23)cc1 | -8 | 1.47
17 | CC(C)C(=O)N1CCC[C@H](NS(=O)(=O)c2ccc3[nH]cnc3c2)C1 | 1 | -0.19
18 | CCOCCC(=O)NCc1cc(OC)c(O)cc1Br | -19 | 2.02
19 | CCOc1ccc(CC(=O)N2CC3(C[C@H](CC(=O)N4CCOCC4)CO3)C2)cc1 | -1 | 0.12
20 | O=C(CCC(=O)N1CCC(O)CC1)N[C@@H]1C[C@H]1c1cccc(Cl)c1 | -8 | 0.82
21 | CCN1C(=O)COc2ccc(C(=O)NC(C)(C)C)cc21 | -12 | 1.59
22 | CN(C)c1ccc(CNC(=O)[C@@H]2CC=CCC2)cc1F | -2 | 0.3

Row | SMILES | % Inhibition [%] | Z score
23 | Cc1cc([C@H](C)NC(=O)NCc2ncnn2C)cc(C)c1F | -6 | 0.61
24 | C#CCN(C(=O)c1cc(Cl)c(Cl)[nH]1)c1nccs1 | 1 | -0.15
25 | CCCCS(=O)(=O)N[C@@H](C)c1nc(-c2ccccn2)no1 | -13 | 1.17
26 | COC(=O)N1CC[C@H](c2ccsc2)C1 | -5 | 1.01
27 | O=C(Nc1ccc(Br)cc1Br)N1CC[C@H]2CCCC[C@H]21 | -32 | 3.79
28 | COc1ccc2c(c1)N1CCN(c3ccc(C)cc3)CC1C(C(=O)NCCN1CCCCC1)C2 (configuration not stated) | -11 | 1.31
29 | Cn1cc(CCNCc2ccnn2-c2ccc(F)cc2)nn1 | -11 | 1.71
30 | CC(C)(C)C1CCN(Cc2cnc(C3CC3)s2)CC1O (configuration not stated) | 1 | -0.14
31 | C=CC[C@]1(CO)CCCN(C(=O)c2cc3c(n(C)c2=O)CCCC3)C1 | 4 | -0.86
32 | CN(CC(=O)NCCc1ccccc1)c1nnc(N2CCCC2=O)s1 | -2 | 0.39
33 | COc1cccc(NC(=O)Nc2cnc(OC)nc2)c1 | -5 | 0.86
34 | Cc1csc(CNC(=O)c2ccc3c(c2)CC(=O)N3)n1 | -11 | 1.87
35 | O=C(CCN1CCC(N2CCOCC2)CC1)Nc1cccc(Cl)c1 | -15 | 2.59
36 | O=C(NCc1ccc2c(c1)OCO2)c1ccnc(OCC2CCOCC2)c1 | -17 | 3.2
37 | O=C(O)[C@@]1(CC2CC2)CCCN(Cc2ccccc2OCCO)C1 | -11 | 1.87
38 | c1ccc(-n2nnnc2-c2cn[nH]c2-c2cccs2)cc1 | -8 | 0.92
39 | Fc1ccc2[nH]cc(Cc3nnn[nH]3)c2c1 | 5 | -0.93
40 | COc1cccc(-n2c(=O)n(CC(C)C)c(=O)c3c2ncn3Cc2ccc(F)c(F)c2)c1 | -24 | 2.3
41 | COc1ccc(CNC(=O)C2C(=O)NCC2C(C)(C)C)cc1 (configuration not stated) | -2 | 0.37
42 | CCCN(Cc1ccc(OCC(C)C)c(OC)c1)C(=O)c1cc(Cl)c[nH]1 | -11 | 1.35
43 | Cc1nn(C)c(=O)n1-c1ccc(OCc2ccccc2)cc1 | -7 | 1.08
44 | O=C(C[C@H]1COCCN1C(=O)c1cccc2cc[nH]c12)c1ccco1 | -4 | 0.58

Row | SMILES | % Inhibition [%] | Z score
45 | O=C(c1ccccc1)N1CCOC[C@H](OCc2ccccc2)C1 | 32 | -3.59
46 | Cc1cnn(C)c1C(=O)N1CC[C@@](CO)(Cc2ccc(F)cc2)C1 | 0 | 0.06
47 | c1ccc([C@@H]2NCCOc3ccccc32)cc1 | 2 | -0.32
48 | O=C(CN1CCCC1=O)N1CCN(Cc2ccc(Cl)s2)CC1 | -5 | 0.62
49 | COc1ccc(-n2ccnc2CN[C@H]2CCCN(c3ncccn3)C2)cc1 | -7 | 0.95
50 | O=C([C@@H]1CCCO1)N1CCCN(S(=O)(=O)NCc2ccccc2)CC1 | 2 | -0.28
51 | Cc1nc(CC(=O)NCc2nc(-c3ccco3)n[nH]2)cs1 | -15 | 2.12
52 | Cc1cc(NCc2csc(N(C)C)n2)nc(Nc2cccc(O)c2)n1 | -3 | 0.61
53 | O=C(O)C1CC2CCCCC2N1S(=O)(=O)c1cccc(F)c1F (configuration not stated) | 1 | -0.31
54 | Nc1nc(C2CC(N)C2)cc(N2CCC(Oc3ccccc3Cl)CC2)n1 (configuration not stated) | 50 | -7.79
55 | CCOc1ccc2c(c1)cc(C(=O)N1CCCC1)n2C | -5 | 0.65
56 | Cc1nc(C(=O)NCc2ccccn2)c(-c2ccccc2)s1 | -1 | 0.22
57 | c1nc(-c2csc(N3CCOCC3)n2)co1 | -4 | 0.6
58 | CO[C@H]1COC[C@H]1NC(=O)N1CCCC1c1cccs1 (some centres not stated) | -4 | 0.7
59 | Cc1nc(N2CCC[C@H](C(=O)NCc3cccc(F)c3)C2)c2c(C)c(C)oc2n1 | -7 | 0.72
60 | CCn1ncnc1[C@H]1CC(=O)Nc2[nH]nc(-c3cccs3)c21 | 2 | -0.36
61 | Cc1cn2nc(C(=O)NCc3cccs3)cc2c(N2CCCC2)n1 | 5 | -0.76
62 | COc1cccc(-c2n[nH]c3c2CN(C(=O)c2c(C)noc2C)CC3)c1 | -9 | 1.17
63 | O=C(O)CN(Cc1ccc(CO)cc1)Cc1ccc(Cl)s1 | 6 | -0.75
64 | c1cc([C@H]2CCCN(c3ncnc4c3CCC4)C2)[nH]n1 | 7 | -0.92
65 | CCC(C)C(C)(O)CNC(=O)C(=O)Nc1ccc(F)cc1C (configuration not stated) | -10 | 1.21
66 | C[C@]1(c2ccc3c(c2)OCCCO3)NC(=O)N(CC(=O)N2CCN(S(=O)(=O)c3ccc(F)c(F)c3)CC2)C1=O | -7 | 1.39

Row | SMILES | % Inhibition [%] | Z score
67 | COc1cc(OC)cc(C(=O)Nc2ccc3c(c2)C(=O)N2CCC[C@H]2C(O)=N3)c1 | 24 | -2.11
68 | COCCN1CC2(CCC1=O)CCN(c1nc(C)cc(C)n1)CC2 | -7 | 0.6
69 | Cc1ccc(-c2nn(-c3ccccc3)cc2C(=O)N2CCC(C)CC2)o1 | -5 | 0.6
70 | CCc1sc(Nc2ccc(C)cc2)nc1-c1c(C)n(C)n(-c2ccccc2)c1=O | -30 | 3.57
71 | Cc1oc(-c2cnn(C)c2)nc1C(=O)Nc1cc(F)ccc1OC(C)C | -10 | 1.61
72 | Cn1c(C2CC2)nnc1N1CCC[C@]2(CC=CCC2)C1 | -6 | 0.99
73 | CCOC(=O)CCC(=O)Nc1ccc(C(N)=O)c(Cl)c1 | 3 | -0.4
74 | CC(C)NC(=O)C1CCCC(NC(=O)CC2(O)CCCCC2)C1 (configuration not stated) | -10 | 1.42
75 | COC(=O)N1CCCC(C(C)NC(=O)c2scc(C)c2Cl)C1 (configuration not stated) | -14 | 1.46
76 | O=C([C@@H]1COCCO1)N1CCC=C(F)C1 | -5 | 0.69
77 | Cc1cc(CC(=O)N2CC[C@@H](O)C2)n[nH]1 | 4 | -0.42
78 | C[C@H]1C(=O)NCCCN1C(=O)c1ccc(Br)cn1 | -7 | 0.69
79 | O=C(c1ccc2[nH]cnc2c1)N1CCc2[nH]nc(-c3cc(F)ccc3F)c2C1 | 7 | -0.99
80 | c1cc(-c2nc3ccccc3o2)c2ccncc2c1 | -2 | 0.32
81 | CC(C)(C)OC(=O)N[C@H](c1nc(Cc2cccnc2)no1)C1CCC1 | -3 | 0.53
82 | Cc1noc(C)c1S(=O)(=O)N1CC(N2CC(F)(F)C[C@H]2COCc2ccccc2)C1 | -18 | 2.14
83 | Cc1cc(C)cc(NC(=O)C2CCN(c3cc(C)nc4c(-c5ccc(Cl)cc5)c(C)nn34)CC2)c1 | -12 | 1.53
84 | C#CCOc1ccc([C@H]2CC(=O)Nc3ccsc32)cc1OC | 24 | -3.41
85 | O=C1CN(c2ccc(CNC(=O)N3CCCCCCC3)cc2)CCN1 | -16 | 1.64
86 | CC(C)(C)CC(=O)NC[C@H]1OC[C@@H](NC2COC2)[C@@H]1O | -14 | 2.2
